Whole data set: some 33,000 sequences, median “E-score (-0.5 to 0.5)” near -0.056, cut for the highest 2% near 0.38. Some of the results follow.
Each sequence was assayed against Stb4 (UniProt P50104) (assay: PBM E-score (8-mer binding enrichment) (E-score (-0.5 to 0.5)); higher = stronger / more preferred TF binding; most listed sequences are background and not binding sites). Details: protein concentration: 200 nM; construct: GST-DNA-binding domain.
Method in brief: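 Detection of bound protein used fluorescent anti-GST, with scans normalised by masliner. The proteins were GST-tagged yeast transcription factors applied at about 100-200 nM to universal all-10-mer Agilent arrays made double-stranded by primer extension. Each ungapped eight-base word, pooled with its reverse complement, was scored with an E-score from the Universal PBM Analysis Suite.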

Row | Sequence | PBM E-score
1 | CCAATACG | -0.0591
2 | GACACGGA | 0.328
3 | AAAGACGT | -0.0958
4 | CATGGTAG | -0.12
5 | GATACAAA | -0.0247
6 | CAGCGGGG | -0.13
7 | ACAGCAAC | -0.0154
8 | GTTTCCTA | -0.177
9 | ATCCTAAG | -0.239
10 | AAAACGGA | 0.229
11 | CATTGTAC | 0.0212
12 | CGTATCAC | -0.231
13 | GCCTAGTA | -0.0525
14 | AGAGTTAC | -0.165
15 | CATTATAA | 0.0189
16 | GATGGAAC | -0.0089
17 | AATGTTTG | -0.0254
18 | ACAGTTGG | -0.193
19 | AAGCATAG | -0.205
20 | ATTATCGA | -0.195
21 | GGGGTCGA | 0.0254
22 | CATCATAC | -0.166

Row | Sequence | PBM E-score
23 | GACTGAGC | -0.25
24 | ATATCGAG | -0.0124
25 | ACGAAGCA | -0.307
26 | AATGCTCT | -0.155
27 | CCCTCCTA | -0.175
28 | GCAAATAC | -0.0869
29 | GAGGGTCA | -0.152
30 | GTACATGA | -0.123
31 | CACCACGC | -0.217
32 | CAACGAGG | -0.209
33 | CATAAGCC | 0.053
34 | CTGGCATA | -0.103
35 | TCTAGTCA | -0.0798
36 | CCGCGGTA | 0.294
37 | CAACGAGA | 0.0206
38 | GCTCTTAC | -0.125
39 | TGCTCAAA | 0.0404
40 | ACCGATTG | 0.0598
41 | TAGACAGA | -0.179
42 | AACATGCT | -0.052
43 | GTAACGAA | -0.0433
44 | CAATATTG | -0.381

Row | Sequence | PBM E-score
45 | AGATTCAA | 0.0199
46 | CGGGGCCC | 0.159
47 | AATTGTCA | -0.179
48 | CCCATACG | -0.108
49 | CGTATGCA | -0.0792
50 | AAAAGAGT | -0.059
51 | AGAGAGGC | -0.218
52 | CAGCCAGA | 0.0384
53 | GAAAGCTC | -0.115
54 | AGAGCTCA | -0.238
55 | ACCTCATA | -0.129
56 | ATGTGTAG | 0.114
57 | CTCGTGTA | -0.0131
58 | GCGATCGC | -0.0276
59 | GGAGGTAA | 0.00055
60 | CGGTCCTC | 0.106
61 | CAGGTGAC | -0.223
62 | GGTCATGA | -0.153
63 | CGAAACTA | 0.165
64 | CCTCGCGC | -0.0639
65 | AGTGCAAT | -0.18
66 | ATCTAGAG | -0.189

Row | Sequence | PBM E-score
67 | ATCTATGA | -0.0937
68 | AGGCCCCG | 0.068
69 | CCTAGACA | -0.217
70 | CTCATAAA | -0.0904
71 | ATACCTGA | -0.104
72 | CGATTTGC | 0.173
73 | GATTACAA | 0.00563
74 | GGGACAGA | -0.0148
75 | ATTGGTCG | -0.0654
76 | TCAAGCGA | -0.179
77 | CGCGACGC | 0.00739
78 | CGTACTCA | -0.1
79 | CCGGCGCA | 0.28
80 | CAAGACAC | -0.132
81 | GGCTTGAC | -0.0779
82 | ACAATGAA | -0.217
83 | AGCCGGTA | 0.288
84 | CGCTGTGA | -0.276
85 | CCCCCCAG | -0.272
86 | CACACCTC | 0.0336

— the supplement of paper PMC3334620
